Reference: the BET-seq Pho4 binding data (Le et al. 2018)
The other results are listed elsewhere or left out. The energies were worked out here from pooled read counts, against the library average; single values are noisy.

These sequences were tested against T1, Pho4 (S. cerevisiae) (UniProt P07270) (assay: relative binding free energy (BET-seq); higher = weaker binding). Settings: reference: library average.
T1 sequence: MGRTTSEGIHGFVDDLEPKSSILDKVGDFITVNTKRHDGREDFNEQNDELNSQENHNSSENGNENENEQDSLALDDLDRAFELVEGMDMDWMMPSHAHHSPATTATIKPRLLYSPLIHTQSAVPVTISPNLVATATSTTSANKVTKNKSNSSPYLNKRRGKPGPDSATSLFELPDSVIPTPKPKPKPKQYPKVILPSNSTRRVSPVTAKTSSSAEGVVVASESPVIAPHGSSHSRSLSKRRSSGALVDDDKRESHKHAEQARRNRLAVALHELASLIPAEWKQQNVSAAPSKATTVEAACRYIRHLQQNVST

Sequence | relative binding free energy
TTCGGCACGTGAGGGA | -0.09 kcal/mol
TAACTCACGTGAGGGT | 0.34 kcal/mol
AGTTGCACGTGTCTAG | 0.03 kcal/mol
TATCGCACGTGATGTA | 0.06 kcal/mol
TGTATCACGTGGTGAT | 0.08 kcal/mol
GTAATCACGTGTTTTA | 0.2 kcal/mol
TCTAGCACGTGCGTGG | -0.23 kcal/mol
ATGCGCACGTGATGGA | 0 kcal/mol
AGGCTCACGTGGTGGT | 0.1 kcal/mol
GAATTCACGTGACTGG | 0.6 kcal/mol
GAAGTCACGTGATGTG | 0.33 kcal/mol
ATTTTCACGTGGTCAA | 0.24 kcal/mol
AGCTGCACGTGGTGGT | -0.08 kcal/mol
AATGGCACGTGTAGTG | -0.03 kcal/mol
ATGTGCACGTGAAGGA | 0.25 kcal/mol
TTTTCCACGTGGTCTA | 0.02 kcal/mol
TTGTTCACGTGGAGCC | 0.31 kcal/mol
GCTGGCACGTGTTGGC | -0.05 kcal/mol
GGTAGCACGTGGGCAA | -0.16 kcal/mol
GTATGCACGTGCGCGG | -0.22 kcal/mol
TTGGCCACGTGTTGTA | -0.05 kcal/mol
TAGACCACGTGGGGGT | -0.35 kcal/mol
TGAGTCACGTGGAAAT | 0.18 kcal/mol
ATTAGCACGTGTGTAA | 0.02 kcal/mol
GGAAACACGTGTGCGT | 0.06 kcal/mol
TTAATCACGTGGGGGG | 0.05 kcal/mol

Sequence | relative binding free energy
TTGAGCACGTGGATAT | -0.23 kcal/mol
AGCTGCACGTGGTTAT | -0.13 kcal/mol
ATTAGCACGTGCGTCT | 0 kcal/mol
ATCTACACGTGTTGAG | 0.21 kcal/mol
GGTCACACGTGGGAGA | 0.17 kcal/mol
TTCGGCACGTGCGTTA | -0.13 kcal/mol
CTATTCACGTGTGTGG | 0.28 kcal/mol
TGGAGCACGTGGACGT | -0.13 kcal/mol
AGTCTCACGTGTTGTT | 0.17 kcal/mol
AGCTGCACGTGAGGTG | 0.12 kcal/mol
GTGATCACGTGGTGTT | 0.07 kcal/mol
GACGTCACGTGGGTGG | 0.12 kcal/mol
CGAGTCACGTGGCGTT | -0.05 kcal/mol
GAATACACGTGATGTT | 0.28 kcal/mol
ATGTGCACGTGAGCTT | -0.02 kcal/mol
CAGGGCACGTGCGTTG | -0.2 kcal/mol
TGGTTCACGTGTAGAG | 0.29 kcal/mol
CATAGCACGTGGTATG | -0.19 kcal/mol
TGTGTCACGTGGTTCC | 0 kcal/mol
GGGTTCACGTGGCGTT | 0.25 kcal/mol
GAGGACACGTGGGTAG | 0 kcal/mol
AGGGACACGTGGAGGC | 0.08 kcal/mol
TATCGCACGTGTGTTC | -0.01 kcal/mol
GTATTCACGTGGAGGT | 0.15 kcal/mol
TCGGGCACGTGCGTTG | -0.11 kcal/mol
GAAGGCACGTGTAAAG | 0.11 kcal/mol

Sequence | relative binding free energy
AGTGCCACGTGGGATA | -0.22 kcal/mol
ATTTGCACGTGCAGTA | -0.03 kcal/mol
AGTGTCACGTGGTCAG | -0.03 kcal/mol
GATATCACGTGTTAGG | 0.29 kcal/mol
GGGATCACGTGTCGGG | 0.22 kcal/mol
TGCTCCACGTGTTGTG | -0.03 kcal/mol
TTATACACGTGTACGT | -0.08 kcal/mol
CGGCTCACGTGTGTGG | 0.18 kcal/mol
GAGTGCACGTGGGCCG | -0.21 kcal/mol
TGTCGCACGTGTTATG | -0.06 kcal/mol
GATATCACGTGAAGTG | 0.42 kcal/mol
TACATCACGTGGGAGT | -0.04 kcal/mol
ATTTTCACGTGGGATG | 0.16 kcal/mol
TTGTTCACGTGTGTGT | 0.29 kcal/mol
TGTGGCACGTGGATGA | -0.08 kcal/mol
TTTCGCACGTGTTTTC | 0.19 kcal/mol
ATGGGCACGTGATTTG | -0.05 kcal/mol
TGCGGCACGTGTTAGT | -0.05 kcal/mol
GTGGCCACGTGTTGGG | 0.08 kcal/mol
AAGGGCACGTGAGAGA | 0.26 kcal/mol
ATGTGCACGTGCGTGA | -0.23 kcal/mol
CTAAACACGTGGGGTT | -0.17 kcal/mol
TGGGCCACGTGGGCGA | -0.17 kcal/mol
TGTTGCACGTGGATTG | 0.12 kcal/mol
CGTGGCACGTGCGGTT | -0.11 kcal/mol
ATCTGCACGTGATGTG | 0.05 kcal/mol

Sequence | relative binding free energy
TGTAGCACGTGGTAGG | -0.15 kcal/mol
TATGTCACGTGGTCAA | 0.01 kcal/mol
GGGTTCACGTGGGGAA | 0.32 kcal/mol
TGTGACACGTGAGTCT | 0.1 kcal/mol
TCTGGCACGTGGTCGG | -0.18 kcal/mol
AGTTTCACGTGTGAAG | 0.11 kcal/mol
TGTAGCACGTGGTGGA | -0.04 kcal/mol
ATGGGCACGTGCTAGT | -0.22 kcal/mol
ATGGTCACGTGGCATA | -0.04 kcal/mol
AGGCGCACGTGCGAGT | -0.1 kcal/mol
CGTCGCACGTGAGGGA | 0.27 kcal/mol
TGTGGCACGTGGGGAA | -0.19 kcal/mol
GGAGACACGTGAAGTT | 0.18 kcal/mol
TGAGTCACGTGTGAGA | 0.26 kcal/mol
GTGCTCACGTGGGTAA | 0.02 kcal/mol
ATAGTCACGTGTTGTA | 0.09 kcal/mol
AATTTCACGTGTAGGT | 0.22 kcal/mol
TTTAACACGTGGTAAG | -0.1 kcal/mol
GCGGGCACGTGTTTGT | -0.04 kcal/mol
TTGTTCACGTGGGGGG | 0.18 kcal/mol
GGGTTCACGTGTGGAA | 0.29 kcal/mol
GTACACACGTGGTGTG | -0.12 kcal/mol
AGGGACACGTGTGTTA | -0.06 kcal/mol
TGTAGCACGTGGAGGC | 0.01 kcal/mol
GGTGGCACGTGGTACT | -0.21 kcal/mol
GTAGGCACGTGCGTGT | -0.11 kcal/mol

Sequence | relative binding free energy
GGTTGCACGTGAAGTC | 0.35 kcal/mol
CAATTCACGTGTTTTT | 0.21 kcal/mol
CTTTACACGTGATGGA | 0.24 kcal/mol
ATGTTCACGTGAGGGC | 0.42 kcal/mol
CTTGGCACGTGAGGCA | 0.14 kcal/mol
ATTGGCACGTGCGCTG | -0.34 kcal/mol
ATGGACACGTGTGATA | 0.11 kcal/mol
CGTTGCACGTGTGGCA | -0.05 kcal/mol
TTGTGCACGTGCAGCT | -0.09 kcal/mol
AGTGTCACGTGAGTAG | 0.25 kcal/mol
TTGGACACGTGGGGCA | -0.06 kcal/mol
GGATACACGTGATTGT | 0.05 kcal/mol
GTTGCCACGTGGAATT | 0.24 kcal/mol
TGTTGCACGTGGTTAG | -0.06 kcal/mol
GATAGCACGTGTTGTG | -0.13 kcal/mol
GTTTTCACGTGATGAA | 0.39 kcal/mol
TCGTGCACGTGGGGAT | -0.17 kcal/mol
TGTCTCACGTGGTTTC | 0.4 kcal/mol
TAAAACACGTGAGTGG | 0.24 kcal/mol
AGTCACACGTGTGGGG | 0 kcal/mol
AGGTTCACGTGTTATG | 0.23 kcal/mol
GAGGTCACGTGTCGTC | 0.34 kcal/mol
AGTTTCACGTGATGTT | 0.3 kcal/mol
TGTCGCACGTGACGGT | -0.06 kcal/mol
TAAGTCACGTGGGATA | 0.04 kcal/mol
TTTTACACGTGTTCCG | 0.17 kcal/mol

Sequence | relative binding free energy
GCTTACACGTGTTAGT | 0.14 kcal/mol
CGCGGCACGTGTAGTG | -0.01 kcal/mol
TAAGTCACGTGGTACG | -0.01 kcal/mol
GATTACACGTGTATTG | 0.08 kcal/mol
AGGCACACGTGTTTGG | 0.02 kcal/mol
TTTTCCACGTGTGTTG | 0.11 kcal/mol
TGGGGCACGTGCGTTT | -0.14 kcal/mol
AGAAGCACGTGGTCGG | -0.1 kcal/mol
GGTTGCACGTGGGATT | 0.05 kcal/mol
CATTTCACGTGGTAAT | 0.31 kcal/mol
TGTATCACGTGTGTAT | 0.09 kcal/mol
GTATTCACGTGGACGG | 0.22 kcal/mol
TTGATCACGTGCGTGT | 0.04 kcal/mol
TCTAGCACGTGCGTTT | -0.07 kcal/mol
CTGTACACGTGTTAAG | 0.13 kcal/mol
AGGGACACGTGCAGGG | -0.06 kcal/mol
TTATACACGTGACATG | 0.18 kcal/mol
GGGTGCACGTGGTTAA | -0.01 kcal/mol
GCGTGCACGTGTAGTG | -0.02 kcal/mol
AGAGTCACGTGTAGGT | 0.11 kcal/mol
TTTTTCACGTGGGAGG | 0.3 kcal/mol
TTCGGCACGTGGGTTT | -0.12 kcal/mol
CGTTGCACGTGGTAAT | 0.03 kcal/mol
AGTTTCACGTGGCCTG | 0.15 kcal/mol
GGCGGCACGTGAGGCA | 0.28 kcal/mol
TTGTTCACGTGGGGGA | 0.16 kcal/mol

Sequence | relative binding free energy
GTTCGCACGTGTACTG | 0.12 kcal/mol
AGGCGCACGTGATGGA | 0.16 kcal/mol
GTGTGCACGTGAAAGT | 0.13 kcal/mol
ATGTTCACGTGAGAGA | 0.33 kcal/mol
GGATTCACGTGGCTAG | 0.13 kcal/mol
TTGGTCACGTGAGGTG | 0.31 kcal/mol
TGTCGCACGTGTGGTC | -0.06 kcal/mol
TTCTGCACGTGAACGG | 0.32 kcal/mol
CTGTTCACGTGTACGG | 0.22 kcal/mol
TACGGCACGTGGTTGG | -0.04 kcal/mol
CGGGACACGTGAGATA | 0.54 kcal/mol
CATTACACGTGTGTTG | 0.11 kcal/mol
GGTTACACGTGTAGAT | 0.22 kcal/mol
TTTGGCACGTGGACCG | 0.05 kcal/mol
AGTCGCACGTGTTGGA | -0.03 kcal/mol
GGGATCACGTGGGCGT | 0.04 kcal/mol
ATTAACACGTGAAGGT | 0.33 kcal/mol
GCCTACACGTGGTGGG | 0.07 kcal/mol
ATTAACACGTGGAGAG | 0.04 kcal/mol
TTGGACACGTGAAGAG | 0.19 kcal/mol
CGCGGCACGTGGGTTG | -0.2 kcal/mol
AGGGACACGTGGAAGG | 0.07 kcal/mol
TATATCACGTGGATGG | 0.14 kcal/mol
TGAGCCACGTGTATAG | 0 kcal/mol
ATCATCACGTGTGGAG | 0.08 kcal/mol
CAGTTCACGTGGTTGC | 0.29 kcal/mol

Sequence | relative binding free energy
TAGTACACGTGGGTTC | -0.04 kcal/mol
GAGGGCACGTGATTGG | 0.09 kcal/mol
TTTGACACGTGTGATG | 0.07 kcal/mol
TATAACACGTGTTTAT | -0.17 kcal/mol
GGTTTCACGTGGTATC | 0.27 kcal/mol
GGATTCACGTGTCATG | 0.27 kcal/mol
AAAAACACGTGGTGGT | -0.08 kcal/mol
TTGGCCACGTGGGAGT | -0.18 kcal/mol
GCGGTCACGTGGGTTA | -0.04 kcal/mol
GTTGGCACGTGTTTAG | -0.08 kcal/mol
AGGAGCACGTGACGGG | -0.07 kcal/mol
TTGAACACGTGGCTGG | -0.08 kcal/mol
GTAGGCACGTGAGCAT | 0.02 kcal/mol
TGAAGCACGTGTGTCA | -0.09 kcal/mol
ATTTGCACGTGGAGTA | 0.05 kcal/mol
TTGAACACGTGGGAGT | -0.04 kcal/mol
GGAGGCACGTGCAGGT | -0.07 kcal/mol
ATGATCACGTGGCTTA | 0.07 kcal/mol
CGTGGCACGTGAGTCG | 0 kcal/mol
CGTTTCACGTGGTGAA | 0.13 kcal/mol
TCTTTCACGTGTTGAA | 0.36 kcal/mol
CGCGTCACGTGGCGGG | -0.07 kcal/mol
TATCTCACGTGTGCGT | 0.16 kcal/mol
TTCGGCACGTGTCGAA | 0.17 kcal/mol
TGCGGCACGTGTTTTA | -0.05 kcal/mol
GTGGTCACGTGTCCGG | 0.15 kcal/mol

Sequence | relative binding free energy
TAGAGCACGTGATTTA | 0.08 kcal/mol
GCGGTCACGTGGGCAG | 0 kcal/mol
AGGTCCACGTGCGGTT | -0.09 kcal/mol
TATGGCACGTGTTATC | -0.18 kcal/mol
TGGGGCACGTGGTTAG | -0.13 kcal/mol
ATTGTCACGTGTAGCT | 0.06 kcal/mol
ATAGCCACGTGAGGGT | 0 kcal/mol
GAGCGCACGTGTGGGT | -0.02 kcal/mol
AGTCTCACGTGTTGAG | 0.29 kcal/mol
TCTGACACGTGGTAGG | -0.02 kcal/mol
TCGTTCACGTGTTGCG | 0.13 kcal/mol
CGGTGCACGTGTACGG | 0.01 kcal/mol
TCTGGCACGTGGGATT | -0.15 kcal/mol
TCTTTCACGTGAGATG | 0.41 kcal/mol
GGTCGCACGTGGGGGC | -0.1 kcal/mol
TAGAGCACGTGAAGAT | 0.34 kcal/mol
GGTTTCACGTGTGTGA | 0.31 kcal/mol
GCAGACACGTGTGGGA | 0.09 kcal/mol
GGGTGCACGTGTTACA | 0.04 kcal/mol
TCTTTCACGTGGCGTG | 0.16 kcal/mol
TTGGCCACGTGGCATG | -0.21 kcal/mol
GCAGTCACGTGTATGT | 0.16 kcal/mol
